In the test the target is T1, FSHR (coated protein) (UniProt P23945).
T1 sequence (looked up): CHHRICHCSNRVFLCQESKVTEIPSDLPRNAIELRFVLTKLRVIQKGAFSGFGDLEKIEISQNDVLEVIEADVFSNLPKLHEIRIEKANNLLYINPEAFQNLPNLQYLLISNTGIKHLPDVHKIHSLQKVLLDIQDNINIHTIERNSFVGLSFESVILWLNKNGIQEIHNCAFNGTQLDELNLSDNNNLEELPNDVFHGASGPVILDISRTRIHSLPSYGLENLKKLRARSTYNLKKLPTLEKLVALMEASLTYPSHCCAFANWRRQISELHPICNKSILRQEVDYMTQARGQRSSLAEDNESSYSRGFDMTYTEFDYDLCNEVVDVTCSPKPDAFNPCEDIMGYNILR
Description: ELISA: FSHR coated at 10ug/mL, 目的蛋白 at 1ug/mL, detected with HRP-Streptavidin through the Strep II tag, TMB; water-coated control well 0.0524. Background: In an ELISA, binding on a coated surface is turned into a signal by an enzyme label.

B1: 靶向FSHR和CD3分子的双结合蛋白 (SEQ ID NO.6) (protein)
chain: WSHPQFEKQVQLQQSGAELARPGASVKMS[here about 80 residues without letters]WGQGTTLTVSSGGGGSGGGGSGGGGSQIVLTQSPAIMSASPGEKVTMTCSASSSVSYMNWYQQKSGTSPKRWIYDTSKLASGVPAHFRGSGSGTSYSLTISGMEAEDAATYYCQQWSSNPFTFGSGTKLEINRGGGGSGGGGSGGGGSYTRDLVYKDPARPKIQKTCTFHHHHHH
In turn, B1 showed a 吸光度值 (620nm) (absorbance at 620nm) of 0.0564.

These data come from patent CN114891126A.
